First the molecules themselves.
T1: UNK ZnF1-3 (human, UniProt Q9C0B0 31-174)
T1 sequence: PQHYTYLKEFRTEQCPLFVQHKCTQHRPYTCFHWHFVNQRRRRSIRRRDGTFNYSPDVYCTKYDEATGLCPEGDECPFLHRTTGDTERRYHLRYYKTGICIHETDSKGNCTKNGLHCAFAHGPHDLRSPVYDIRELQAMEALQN

B1: chr1:174129369:174129370:-_ENSMUSG00000013698_ENSMUST00000013842|mus_mus|FALSE|FALSE (ssRNA)
RNA: GGGAGUUCUACAGUCCGACGAUCACGGGUUCUGUAGUCAACCACCAUAGUGAGGAGGUCAGGACGGCGAGAUAUCUCAAAGAUGUGCUCAAUGUAGGAGAGGUUGUCUUUGUCCAGCUUGUUGUGGCUCUCCAGGAAGCUAAACAACAGAGGAUUGAGCAUCA
B2: chr1:163112212:163112213:-_ENSG00000143248_ENST00000313961|hu_hu|hu_hu_hu_mus_False|58_78 (ssRNA)
RNA: GGGAGUUCUACAGUCCGACGAUCUUUUAUUAUCAGUAAGAGUGAGUUACAUACUAGAUAAAGUAUUGGAUACAAUAUUCUAAAGAUAAACACUAUUGGUCCAGAAUUUAAAACUUUAUGAGCGAAGUGCUGGCACAGGACUUACAACAGAGGAUUGAGCAUCA
B3: chrX:34632047:34632048:-_ENSMUSG00000036572_ENSMUST00000076265|mus_hu|FALSE|FALSE (ssRNA)
RNA: GGGAGUUCUACAGUCCGACGAUCUAACUAUUUAAAUUUUUGUAUCAACGAAAGUGUGUUCUAUCCUUCACUGUACCUGUACUACAAGGACAUGCUUGUUGCUUCUACACUACCCAAUGUCAACACUUAUCAUCAACAAUACAACAACAGAGGAUUGAGCAUCA
B4: chr2:187373433:187373434:+_ENSG00000065548_ENST00000337859|hu_hu|FALSE|FALSE (ssRNA)
RNA: GGGAGUUCUACAGUCCGACGAUCUUUUCAGCGAUGUGUUUGGUGUCAUUCUUCUAAAUCAAGUGUAUUUAAUUCUUCUUCUAGUUCAUCCAAAUCCUCUCCAGUGAAAAGAUUUUCAUCAACAGGAACAGCAUCAAUGGCUCCCAACAGAGGAUUGAGCAUCA
B5: 128792796_128792916_2876_3pUTR_ENSMUSG00000063317_ENSMUST00000046929|mouse|control|control (ssRNA)
RNA: GGGAGUUCUACAGUCCGACGAUCUUAUUAUCAAAAGGAUCAGAGACGGGGGGCAAGUGAUCCCCUUGUGCUCGGUUUUUGCUUGGUGUGUCUACAACACUGGAGUUCAAUUUUCCAGGGUCUGAGUCAUCUUUGAACACACCUCAACAGAGGAUUGAGCAUCA
B6: 98121652_98123399_354_3pUTR_ENSMUSG00000022987_ENSMUST00000023722|mouse|control|control (ssRNA)
RNA: GGGAGUUCUACAGUCCGACGAUCAGUCUGUCUGCGAGGGGUCCAGGCUCCGCCACUCCUCCUGGGAUCCGGCUGCAAGAAGUGCGGCUGCCAUUUCCCAGUCUCCAGUGUUCCCCUCCUGGGGAACGGCCGGAACCCAGGGAACAACAGAGGAUUGAGCAUCA
B7: chr2:198367945:198367946:+_ENSG00000115541_ENST00000409468|hu_mus|FALSE|FALSE (ssRNA)
RNA: GGGAGUUCUACAGUCCGACGAUCGACACCAUUUCAACAGUGAUUUCAGUCGACAUACUUUCCAAGAAUGUCACUAUCUCUAAAUAAGAAAUAAUCCUUGUCAUCUAGAACUACUUUGGUGCCUCCAUAUUCUGGGAGAAGAACCAACAGAGGAUUGAGCAUCA
B8: chr22:18299541:18299542:-_ENSG00000243156_ENST00000441493|hu_hu|FALSE|FALSE (ssRNA)
RNA: GGGAGUUCUACAGUCCGACGAUCAAGGACAUCGUCGCUGGAGAGGUCUGAGUCCUCGGAGAAGCUCAGCUGGCGCCGGAGCUGCAGCUCUGCCCUUACGACGGGAAGCACCCUGUGCUUUCCAGAGUCCACCGUGGCCCCGCUCAACAGAGGAUUGAGCAUCA
B9: chr7:140404665:140404666:+_ENSG00000090266_ENST00000247866|hu_hu|hu_hu_hu_mus_False|8_58 (ssRNA)
RNA: GGGAGUUCUACAGUCCGACGAUCUGCUCCUACUCGUCCAGAGAGUUUACAGUGUCAGUCCUCGUCAUCAGGAGGGAUACCUAAUUCUUCAUCUGUCCACUGUGAAGGAUCUGGAUAUGAAAAGUGACCCAGCACCUCAUCCGACAACAGAGGAUUGAGCAUCA
B10: chr15:76014475:76014476:-_ENSMUSG00000022565_ENSMUST00000071869|mus_hu|FALSE|FALSE (ssRNA)
RNA: GGGAGUUCUACAGUCCGACGAUCGAGCUCCGGGAGGGUGGCCGGCACGGCCUGGGCCUCCUUGAGCUGCUCCUCGUGGGCCCUGAGCACCUCCUCGGCCCCCUGCGUGCCGCGGAUCACCAGGCUGAUGGUCUUGAGCUUCUCCAACAGAGGAUUGAGCAUCA
B11: chr1:58468927:58468928:-_ENSMUSG00000026034_ENSMUST00000148330|mus_mus|mus_mus_mus_hu_False|78_88 (ssRNA)
RNA: GGGAGUUCUACAGUCCGACGAUCAAUUACUGAAAAAGAUGUUCAUUUAUUUGGUUUGGCCAUGUAUGAACCAAAUUACCCAAACAAAAUAAACAUGGCAAUAUAAAAAUGUUAAGAAUUUACAAAGCUGUACAAAAUAACUUACAACAGAGGAUUGAGCAUCA
B12: chr14:78183846:78183847:+_ENSG00000119705_ENST00000557342|hu_hu|hu_hu_hu_mus_False|1_78 (ssRNA)
RNA: GGGAGUUCUACAGUCCGACGAUCUCUCAGAAAUCUUUCUUCAUCAGAUGUUUGAGCUGUUUGCGGAGCCUUUGCUCUUUGAGCUUGAACGUGGAUCUAUGGGAGGGAAAGCACUGUCAGAAAAGGUAAUUUUUUUUUCCGAAGCAACAGAGGAUUGAGCAUCA
B13: chr13:111857651:111857652:+_ENSG00000102606_ENST00000375736|hu_hu|FALSE|FALSE (ssRNA)
RNA: GGGAGUUCUACAGUCCGACGAUCGCACACACGGAGUCACUCCCCAGCCCGAUGUCUGCUGUUACUUUAUUUAGAGUCACUAAGGAACUGAGGACCUUGUUAAAAUUCUGCCCCUGAUACAAAUCAUUUGCAUCAAACGUCUCCCAACAGAGGAUUGAGCAUCA
B14: chr7:63234579:63234580:-_ENSMUSG00000047037_ENSMUST00000052204|mus_hu|FALSE|FALSE (ssRNA)
RNA: GGGAGUUCUACAGUCCGACGAUCCGUUUGGGCUGCAGAGGGCUGGCUGGGCCUCUGCUCUGGUGCUGAGCCAUGCUCCCCGCUAUCCACCAGACCACCUGUUACUAUCCAGUCAAUUCUAACACCAUGAUCGAGGACCUCUUCCAACAGAGGAUUGAGCAUCA

This is one part of the list.

The target in this test is T1, UNK ZnF1-3. Nature of the test: nsRBNS (natural sequence RNA bind-n-seq); RBNS binding buffer (assumed for nsRBNS): 25 mM Tris pH 7.5, 150 mM KCl, 3 mM MgCl2, 0.01% Triton X-100, 500 ug/ml BSA, 20 U/ml SUPERase-In, 4 C; UNK is unkempt and MSI1 is Musashi-1; names of the RNAs are library labels; protein concentration not given here; high values mean tight binding.
For the molecule B1, the binding signal was 1.09 enrichment R.

In turn, B2 showed a binding signal of 1.08 enrichment R.

B3 came in with a binding signal of 1.16 enrichment R.

B4 returned a binding signal of 1.37 enrichment R.

Turning to B5, the binding signal is 0.823 enrichment R.

B6 returned a binding signal of 0.32 enrichment R.

In turn, B7 registered a binding signal of 0.978 enrichment R.

Regarding B8, the binding signal turned out to be 0.707 enrichment R.

With B9, the binding signal turned out to be 1.05 enrichment R.

B10 returned a binding signal of 1.06 enrichment R.

In the case of B11, the binding signal was 1.15 enrichment R.

Molecule B12 yielded a binding signal of 1.3 enrichment R.

B13 displayed a binding signal of 1.17 enrichment R.

B14 came in with a binding signal of 0.728 enrichment R.

Source of the values: paper PMC12136788.
